{"source": "the supplement of paper PMC4604168 (melanoma cell lines)", "test_in_all_cases": "cell count relative to DMSO control; melanoma cells; higher = more viable cells", "details_in_all_cases": "library dose: low library concentration; 72 h", "key": {"[1]": {"system": "MZ2-MEL"}, "[2]": {"system": "MeWo"}, "[3]": {"system": "RPMI7951"}, "[4]": {"system": "RVH-421"}, "[5]": {"system": "SkMel28"}, "[6]": {"system": "SkMel2"}, "[7]": {"system": "SkMel30"}, "[8]": {"system": "UACC62"}, "[9]": {"system": "WM115"}, "[10]": {"system": "WM1716"}, "[11]": {"system": "WM1745"}, "[12]": {"system": "WM3526"}, "[13]": {"system": "WM3619"}, "[14]": {"system": "WM451Lu"}}, "note": "Some of the results follow. Single values are uncertain, as repeats are few or missing.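 Also: cell number obtained by counting DAPI-stained nuclei in high-throughput microscope images with image analysis software, screen run in 1,536-well plates.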"}
{"smiles": "N#CC[C@H](C1CCCC1)n1cc(-c2ncnc3[nH]ccc23)cn1", "note": "[ruxolitinib] + COc1ccc(Cl)c(Nc2nc3ccccc3nc2NS(=O)(=O)c2cccc(NC(=O)C(C)(C)N)c2)c1 [XL147] (first compound 1 µM, partner dose 0.8 µM)", "values": [{"measurement": "cell count", "setting": "[1]", "result": 112, "unit": "%"}, {"measurement": "cell count", "setting": "[2]", "result": 98.1, "unit": "%"}, {"measurement": "cell count", "setting": "[3]", "result": 105, "unit": "%"}, {"measurement": "cell count", "setting": "[4]", "result": 109, "unit": "%"}, {"measurement": "cell count", "setting": "[5]", "result": 125, "unit": "%"}, {"measurement": "cell count", "setting": "[6]", "result": 107, "unit": "%"}, {"measurement": "cell count", "setting": "[7]", "result": 101, "unit": "%"}, {"measurement": "cell count", "setting": "[8]", "result": 122, "unit": "%"}, {"measurement": "cell count", "setting": "[9]", "result": 104, "unit": "%"}, {"measurement": "cell count", "setting": "[10]", "result": 115, "unit": "%"}, {"measurement": "cell count", "setting": "[11]", "result": 111, "unit": "%"}, {"measurement": "cell count", "setting": "[12]", "result": 107, "unit": "%"}, {"measurement": "cell count", "setting": "[13]", "result": 96.1, "unit": "%"}, {"measurement": "cell count", "setting": "[14]", "result": 125, "unit": "%"}]}
{"smiles": "CC[C@]1(O)C[C@H]2CN(CCc3c([nH]c4ccccc34)[C@@](C(=O)OC)(c3cc4c(cc3OC)N(C=O)[C@H]3[C@@](O)(C(=O)OC)[C@H](OC(C)=O)[C@]5(CC)C=CCN6CC[C@]43[C@@H]65)C2)C1", "note": "[vincristine] + COCC[n+]1c2c(n(Cc3cnccn3)c1C)C(=O)c1ccccc1C2=O [YM155] (first compound 0.0001 µM, partner dose 0.0004 µM)", "values": [{"measurement": "cell count", "setting": "[1]", "result": 57.2, "unit": "%"}, {"measurement": "cell count", "setting": "[2]", "result": 86, "unit": "%"}, {"measurement": "cell count", "setting": "[3]", "result": 47.8, "unit": "%"}, {"measurement": "cell count", "setting": "[4]", "result": 91.6, "unit": "%"}, {"measurement": "cell count", "setting": "[5]", "result": 82.4, "unit": "%"}, {"measurement": "cell count", "setting": "[6]", "result": 89.7, "unit": "%"}, {"measurement": "cell count", "setting": "[7]", "result": 47.8, "unit": "%"}, {"measurement": "cell count", "setting": "[8]", "result": 51.3, "unit": "%"}, {"measurement": "cell count", "setting": "[9]", "result": 51.5, "unit": "%"}, {"measurement": "cell count", "setting": "[10]", "result": 42.3, "unit": "%"}, {"measurement": "cell count", "setting": "[11]", "result": 88.5, "unit": "%"}, {"measurement": "cell count", "setting": "[12]", "result": 64.5, "unit": "%"}, {"measurement": "cell count", "setting": "[13]", "result": 54.8, "unit": "%"}, {"measurement": "cell count", "setting": "[14]", "result": 49.8, "unit": "%"}]}
{"smiles": "Cc1cc(Nc2cc(N3CCN(C)CC3)nc(Sc3ccc(NC(=O)C4CC4)cc3)n2)n[nH]1", "note": "[Tozasertib] + O=C(O)[C@@H]1[O][Sb](=[O])([O][Sb]2(=[O])[O][C@H]([C@H](O)CO)[C@H](O)[C@H](C(=O)O)[O]2)[O][C@H]([C@H](O)CO)[C@@H]1O [stibogluconate] (first compound 0.006 µM, partner dose 2 µM)", "values": [{"measurement": "cell count", "setting": "[1]", "result": 111, "unit": "%"}, {"measurement": "cell count", "setting": "[2]", "result": 82.9, "unit": "%"}, {"measurement": "cell count", "setting": "[3]", "result": 107, "unit": "%"}, {"measurement": "cell count", "setting": "[4]", "result": 110, "unit": "%"}, {"measurement": "cell count", "setting": "[5]", "result": 90.3, "unit": "%"}, {"measurement": "cell count", "setting": "[6]", "result": 98, "unit": "%"}, {"measurement": "cell count", "setting": "[7]", "result": 82.7, "unit": "%"}, {"measurement": "cell count", "setting": "[8]", "result": 88.4, "unit": "%"}, {"measurement": "cell count", "setting": "[9]", "result": 106, "unit": "%"}, {"measurement": "cell count", "setting": "[10]", "result": 97, "unit": "%"}, {"measurement": "cell count", "setting": "[11]", "result": 86.3, "unit": "%"}, {"measurement": "cell count", "setting": "[12]", "result": 93.4, "unit": "%"}, {"measurement": "cell count", "setting": "[13]", "result": 89.6, "unit": "%"}, {"measurement": "cell count", "setting": "[14]", "result": 111, "unit": "%"}]}
{"smiles": "Cc1cc(Nc2cc(N3CCN(C)CC3)nc(Sc3ccc(NC(=O)C4CC4)cc3)n2)n[nH]1", "note": "[Tozasertib] + Cn1cnc2c(F)c(Nc3ccc(Br)cc3Cl)c(C(=O)NOCCO)cc21 [selumetinib] (first compound 0.006 µM, partner dose 0.015 µM)", "values": [{"measurement": "cell count", "setting": "[1]", "result": 107, "unit": "%"}, {"measurement": "cell count", "setting": "[2]", "result": 91.4, "unit": "%"}, {"measurement": "cell count", "setting": "[3]", "result": 102, "unit": "%"}, {"measurement": "cell count", "setting": "[4]", "result": 90.7, "unit": "%"}, {"measurement": "cell count", "setting": "[5]", "result": 101, "unit": "%"}, {"measurement": "cell count", "setting": "[6]", "result": 94, "unit": "%"}, {"measurement": "cell count", "setting": "[7]", "result": 81, "unit": "%"}, {"measurement": "cell count", "setting": "[8]", "result": 87.8, "unit": "%"}, {"measurement": "cell count", "setting": "[9]", "result": 97, "unit": "%"}, {"measurement": "cell count", "setting": "[10]", "result": 96, "unit": "%"}, {"measurement": "cell count", "setting": "[11]", "result": 89.7, "unit": "%"}, {"measurement": "cell count", "setting": "[12]", "result": 80.9, "unit": "%"}, {"measurement": "cell count", "setting": "[13]", "result": 83.5, "unit": "%"}, {"measurement": "cell count", "setting": "[14]", "result": 99, "unit": "%"}]}
